Reference: PubChem BioAssay AID624417 (National Center for Advancing Translational Sciences (NCATS), 2012)
Values joined by “and” are separate entries in the source; they are usually repeats but may differ in a detail not shown here. Equal entries are not always repeated. In all, about 410,000 compounds went through this assay and about 6,400 (1.6%) were called active. The inconclusive results got no clear call from the source; some entries with a clear call stand among them for comparison. Calls follow the shape of the dose curve; as a rule, active = well fitted inhibition curve with a large enough effect; inconclusive = small, poorly fitted or top-dose-only effect; inactive = no such curve, though single readings can be large or run the other way. Potencies of inconclusive entries are doubtful fits and often do not repeat.
% is scaled to controls: 0 for no effect and ±100 for the full control effect; potency is read from the fitted curve at half-maximal effect; tags tell the direction and shape of the fitted curve.
Also: nearly all actives have a fitted effect of over 55% in size.

Each compound was assayed against Glucagon-like peptide 1 receptor (Homo sapiens) (UniProt P43220) (assay: qHTS of GLP-1 Receptor Inverse Agonists (Inhibition Mode)). Conditions: HEK293 GLP-1R CRE-luciferase, luminescence, 24 h, GLP-1R form is constitutively active; activity change, negative = inhibition: at 38.3 µM (top of the series) unless noted.
Sequence of UniProt P43220 (P43220 whole entry, looked up): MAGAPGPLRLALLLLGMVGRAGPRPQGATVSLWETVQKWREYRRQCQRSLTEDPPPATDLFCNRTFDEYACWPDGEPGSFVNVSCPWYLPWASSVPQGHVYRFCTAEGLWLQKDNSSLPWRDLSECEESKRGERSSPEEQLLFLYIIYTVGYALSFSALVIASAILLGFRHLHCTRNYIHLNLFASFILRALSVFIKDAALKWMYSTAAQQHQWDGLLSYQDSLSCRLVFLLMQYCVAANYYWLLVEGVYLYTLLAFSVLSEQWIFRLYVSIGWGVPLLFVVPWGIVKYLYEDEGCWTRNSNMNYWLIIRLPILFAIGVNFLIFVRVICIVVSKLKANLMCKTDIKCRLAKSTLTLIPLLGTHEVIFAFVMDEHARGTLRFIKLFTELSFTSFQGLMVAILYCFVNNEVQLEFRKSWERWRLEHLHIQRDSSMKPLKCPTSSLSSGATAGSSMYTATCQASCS
Procedure, shortened: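 GLP-1R inverse agonism mode: basal reporter luminescence in engineered HEK293 cells measured after one day of compound exposure at 37 deg C, with a 12 min room-temperature detection step.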
With `CCOC(=O)CSc1nc2ccccc2c(=O)n1C1CCCC1` the Potency was inconclusive: 28.2 µM [inhibitor, single point].
`Cc1cc(C)nc(N2CCC(C(=O)NCc3ccccc3F)CC2)n1` was tested, and the “activity change, negative = inhibition” value was inactive: -26.2%.
With `C=CCOC(=O)C1=C(C)N=C2SCCC(=O)N2C1c1cccs1` (stereo not given) the Potency was inconclusive: 12.6 µM [inhibitor, single point].
For `Fc1ccc(CN2CCCN(Cc3nc(-c4ccc5c(c4)OCO5)no3)CC2)cc1`, the Potency was inconclusive: 14.1 µM [inhibitor, partial curve, poor fit].
`COc1ccc(-c2cc(C(=O)Nc3c(C)nn(Cc4ccc(C)cc4)c3C)no2)cc1OC` was tested, and the Potency was inconclusive: 28.2 µM [inhibitor, single point].
In the case of `CCc1ccc(NC(=S)N2CCCC(C(F)(F)F)C2)cc1` (stereo not given), the “activity change, negative = inhibition” value is reported as inactive: -26.4%.
For `NNc1nc2sc3c(c2c(=O)n1Cc1ccccc1)CCC3`, the “activity change, negative = inhibition” value was inactive: 7.33%.
With `CCOC(=O)c1c(C)[nH]c(C)c1S(=O)(=O)NCc1ccccc1OCC` the Potency was inconclusive: 10 µM [inhibitor, partial curve].
`CCOC(=O)/C(=N\Nc1ccccc1[N+](=O)[O-])c1csc(Nc2ccccc2)n1` was tested, and the Potency was inconclusive: 2.24 µM [inhibitor, full curve, poor fit].
For `C[C@@H](c1ccccc1)N1Cc2ccccc2Oc2cc(Br)ccc2S1(=O)=O`, the Potency was inconclusive: 10 µM [inhibitor, partial curve, poor fit].
In the case of `CCCNC(=O)NC(=O)CN1C(=O)NC(C)(c2ccc3ccccc3c2)C1=O` (stereo not given), the Potency is reported as inconclusive: 12.6 µM [inhibitor, single point].
In the case of `COc1ccc(Cl)cc1-c1cc(C(=O)NC2CCCCC2)[nH]n1`, the Potency is reported as inconclusive: 10 µM [inhibitor, partial curve, poor fit].
`COc1cc2c(cc1OC)CN(C(=O)C(C)(C)C)CC2` was tested, and the “activity change, negative = inhibition” value was inactive: 3.61%.
In the case of `COc1cc(NS(=O)(=O)c2ccc3[nH]c4c(c3c2)CCCCCC4)cc(OC)c1`, the Potency is reported as inconclusive: 10 µM [inhibitor, partial curve, poor fit].
`CC1=C(C#N)C(c2cn(-c3ccccc3)nc2-c2cccs2)C(C#N)=C(C)N1` was tested, and the Potency was inconclusive: 14.1 µM [inhibitor, partial curve, poor fit].
In the case of `CCc1ccc(C(=O)c2cncc(Br)c2)cc1`, the Potency is reported as inconclusive: 28.2 µM [inhibitor, single point].
With `Cc1ccc2c(c1)N=C(c1ccccc1)CC(C(Cl)Cl)=N2` the Potency was inconclusive: 11.2 µM [inhibitor, single point].
In the case of `CCOc1ccc2oc(C(=O)NCC3CCCO3)c(C)c2c1` (stereo not given), the “activity change, negative = inhibition” value is reported as inactive: 24.2%.
In the case of `Cc1ccc(NC(=O)CC(C)S(=O)(=O)c2ccc3c(c2)NC(=O)CO3)cc1Cl` (stereo not given), the “activity change, negative = inhibition” value is reported as inactive: -22.3%.
For `O=C(COc1ccc(Cl)cc1Br)NC(=O)NC1CCCC1`, the Potency was active: 10 µM.
With `O=S(=O)(c1ccc(Oc2ncnc3scc(-c4ccccc4)c23)cc1)N1CCOCC1` the Potency was inconclusive: 28.2 µM [inhibitor, single point].
With `COC(=O)c1ccc(CN2CCCC(CO)(Cc3ccc(F)cc3F)C2)cc1` (stereo not given) the Potency was inconclusive: 8.91 µM [inhibitor, partial curve, poor fit].
For `Cc1ccc(-c2nnc(Nc3cccc(O)c3)c3ccccc23)cc1S(=O)(=O)N1CCN(C)CC1`, the “activity change, negative = inhibition” value was inactive: 8.78%.
For `CSc1cccc(NC(=O)C2C3C=CC4(O3)C2C(=O)N(CCCN2CCOCC2)C4C(=O)NC2CCCCC2)c1` (stereo not given), the Potency was inconclusive: 28.2 µM [inhibitor, single point].
With `O=C(CCN1C(=O)c2ccccc2S1(=O)=O)NCc1ccco1` the “activity change, negative = inhibition” value was inactive: 1.03%.
With `CCCc1nc2ccccc2c(=O)n1/N=C/c1ccc(O)cc1` the Potency was inconclusive: 28.2 µM [inhibitor, single point].
With `CC(C)c1ccc(NC(=O)Cn2c(=O)n(CCc3ccccc3)c(=O)c3ccccc32)cc1` the “activity change, negative = inhibition” value was inactive: 13.6%.
For `O=C(NC1CCS(=O)(=O)C1)c1ccc(-c2ccc(Br)cc2)o1` (stereo not given), the “activity change, negative = inhibition” value was inactive: 3.72%.
With `O=C(CCN1CCN(c2ccccc2)CC1)NNC(=S)Nc1ccccc1Cl` the “activity change, negative = inhibition” value was inactive: 14.8%.
With `CCOC(=O)/C=C/c1ccc(C(F)(F)F)cc1S(=O)(=O)NC(C)(C)C` the Potency was inconclusive: 6.31 µM [inhibitor, partial curve, poor fit].
With `COc1ccc([C@@H]2C[C@@H](c3ccccc3)Oc3cc(OC)c(OC)c(OC)c32)cc1` the Potency was inconclusive: 10 µM [inhibitor, partial curve, poor fit].
In the case of `COc1ccc(-c2ccccc2)cc1NC(=O)c1cccs1`, the Potency is reported as inconclusive: 10 µM [inhibitor, single point].
With `CCc1cc(C(=O)N2CCCc3ccccc32)sc1C` the Potency was inconclusive: 10 µM [inhibitor, single point].
For `Cc1ccc(OCc2nc3ccccc3n2CCOc2ccc(Cl)cc2)cc1`, the Potency was inconclusive: 10 µM [inhibitor, single point].
With `O=C(O)c1cc(-c2ccc3ccccc3c2)nc2ccc(F)cc12` the Potency was inconclusive: 3.55 µM [inhibitor, partial curve, poor fit].
`Cc1cc(C)c(S(=O)(=O)c2ccc(C(C)(C)C)cc2)c(Cl)n1` was tested, and the Potency was inconclusive: 12.6 µM [inhibitor, single point].
`CS(=O)(=O)CCC(C(=O)Nc1cccc(C(F)(F)F)c1)N1Cc2ccccc2C1=O` (stereo not given) was tested, and the “activity change, negative = inhibition” value was inactive: -5.9%.
For `COc1cccc(NC(=O)CN(C)C(=O)/C=C/c2cn(-c3ccccc3)nc2-c2cccs2)c1`, the Potency was active: 7.94 µM.
For `O=[N+]([O-])c1ccc(N/N=C/c2c[nH]c3ccccc23)c(S(=O)(=O)Nc2ccc(Cl)cc2)c1`, the Potency was inconclusive: 20 µM [inhibitor, single point].
In the case of `CC(C)COc1ccc(C(=O)N(Cc2ccc(N(C)C)cc2)Cc2ccco2)cc1`, the Potency is reported as inconclusive: 22.4 µM [inhibitor, partial curve, poor fit].
In the case of `CCC(Cn1nnc2ccccc2c1=O)NC(=O)Nc1ccc(C)c(C)c1` (stereo not given), the “activity change, negative = inhibition” value is reported as inactive: -9.57%.
With `COc1ccc(C2=Nn3c(nnc3-c3ccccc3OC)SC2)cc1OC` the Potency was inconclusive: 1.12 µM [inhibitor, full curve, poor fit].
For `CCOc1ccccc1NC(=O)c1cc2c(=O)oc3ccccc3c2s1`, the “activity change, negative = inhibition” value was inactive: 11.1%.
In the case of `CCOc1ccc(C(=O)Nc2cccc(C(=O)O)c2)cc1Cl`, the Potency is reported as inconclusive: 3.55 µM [inhibitor, partial curve, poor fit].
With `CC(=O)c1cc2c(cc1NC(=O)CN1CCCCCCC1)OCO2` the Potency was inconclusive: 10 µM [inhibitor, partial curve, poor fit].
In the case of `Cc1cncn1CCc1nc2c3ccccc3nc(SCC(=O)Nc3cccc(Cl)c3)n2n1`, the Potency is reported as inconclusive: 14.1 µM [inhibitor, single point] and inconclusive: 28.2 µM [inhibitor, single point].
In the case of `Cc1ccc(C)c(N2CCN(C(=O)c3csc(C)c3C)CC2)c1`, the Potency is reported as inconclusive: 28.2 µM [inhibitor, single point].
`O=C(c1ccc(CSc2nc3ccncc3n2Cc2cccc(F)c2)cc1)N1CCCCCC1` was tested, and the Potency was inconclusive: 28.2 µM [inhibitor, single point].
In the case of `CCOC(=O)C1(CCc2ccccc2)CCN(C(=O)c2ccoc2)CC1`, the Potency is reported as inconclusive: 11.2 µM [inhibitor, single point].
For `CCOc1ccc(S(=O)(=O)Nc2ccc3c(c2)N(C(C)=O)CCC3)cc1`, the “activity change, negative = inhibition” value was inactive: 3.56%.
For `Brc1ccc(-c2cn3nc4c(nc3n2)CCCC4)cc1`, the Potency was inconclusive: 2.82 µM [inhibitor, full curve].
For `CC(C)c1cccc(C(C)C)c1NC1=NS(=O)(=O)c2ccccc21`, the “activity change, negative = inhibition” value was inactive: -16.4%.
In the case of `COc1ccccc1NC(=O)NCCN1CCN(c2cccc(Cl)c2)CC1`, the Potency is reported as inconclusive: 7.08 µM [inhibitor, partial curve, poor fit].
`CC(Nc1nc(-c2ccc(F)cc2)cs1)c1nc2cc(Cl)c(N3CCCCC3)cc2n1CCOCCO` (stereo not given) was tested, and the Potency was inconclusive: 14.1 µM [inhibitor, partial curve, poor fit].
`CCCCCc1c2c(cc(O)c1C(=O)O)OC(=O)c1c(cc(OC)cc1C(=O)CCCC)O2` was tested, and the Potency was inconclusive: 10 µM [inhibitor, partial curve, poor fit].
`O=C(NCc1ccc(F)cc1)c1ccccc1OCc1ccccc1` was tested, and the Potency was active: 10 µM.
In the case of `C/C(CC(=O)Nc1cc(Cl)ccc1Cl)=N\NC(N)=S`, the Potency is reported as inconclusive: 31.6 µM [inhibitor, single point].
`CCn1ncc(Cl)c1C(=O)NC(=S)Nc1c(C)cc(C)cc1[N+](=O)[O-]` was tested, and the Potency was inconclusive: 12.6 µM [inhibitor, single point].
With `Cc1cccc(N2CCN(C(=O)CCc3c(C)nc4ncnn4c3C)CC2)c1C` the “activity change, negative = inhibition” value was inactive: -9.74%.
In the case of `CC(C)(C)c1ccc(NC(=O)CNC2CCCc3ccccc32)cc1` (stereo not given), the Potency is reported as inconclusive: 14.1 µM [inhibitor, partial curve, poor fit].
For `COCCN1C(=O)c2[nH]nc(-c3cc(C)ccc3O)c2C1c1ccc(C(C)C)cc1` (stereo not given), the Potency was inconclusive: 31.6 µM [inhibitor, single point].
`CCOc1ccc(CN2CCC(C(=O)N3CCN(c4ccccc4F)CC3)CC2)cc1OC` was tested, and the Potency was inconclusive: 12.6 µM [inhibitor, single point].
In the case of `CCOC(=O)[C@]12CCC=C1N(CCC1=CCCCC1)C(=O)[C@H](CC(=O)NCc1cccc3ccccc13)C2`, the Potency is reported as inconclusive: 28.2 µM [inhibitor, single point].
In the case of `COC(=O)Cc1[nH]n(-c2nc3ccccc3s2)c(=O)c1C(C)=Nc1ccc(OC)cc1`, the Potency is reported as inconclusive: 10 µM [inhibitor, single point].
In the case of `Cc1cccc2sc(NC(=O)CN(C)S(=O)(=O)c3ccc(Br)s3)nc12`, the Potency is reported as inconclusive: 31.6 µM [inhibitor, single point].
